# The source gives no read counts; variants with many changes may rest on few reads.
# B1: LINE1-mini (parent)
# chain: GGCAGAGCUCAACACAGCGUGGCAAAGUGGCUGUGGCUAGACUGCC
# Variants of: B1
# Test: self-cleavage, relative activity (ratio to wild type); higher = more cleavage; in vitro, sequencing; the parent is a self-cleaving ribozyme
row,Variant,self-cleavage
1,G2A A14G C18U G40U,0.01
2,A4C G5U G17A C46G,0.01
3,A4U A24G G44U,0.08
4,A6U C10G A16C U20C,0.02
5,A6U C10G G22A C46U,0.03
6,C10U A16U U20A U43A,0
7,G1U G7C U9G C10A G33A G44A,0
8,C3A G17A U28G G33C,0.02
9,G2A G7C G30C,0.59
10,A14G C15U A25C G33U,0.01
11,G1A G33U C45G,0.05
12,C23G A26U G35C,0
13,G1U G2C G5U A6C C13G,0.02
14,C3U A6G A11C C13U G21U U28C G40A U43G,0
15,A6U G7C A25G G33A G36A,0.14
16,A4G G27C C37A,0.04
17,A4U C10U A14G C15G C37A A39G G40C,0.01
18,C10A A11C C15G G17C G30A U38A,0.01
19,U32C G40A C42A,0.04
20,A12U C23G G27A,0.09
21,U20A G33A C37U,0
22,G1U A14C U38G G40U,0.01
23,G1A C3G A25U G40U,0.17
24,A12C U38G G44A C45G,0

row,Variant,self-cleavage
1,A11C C18G G19C G21A,0.03
2,G5A G36A C45A,0.23
3,C15A G21A U34A C46G,0.08
4,A14U G19U C37U A41U,0.02
5,C8U A12G C42G C45A,0.05
6,A4G C10U C13G G22A C46U,0.05
7,C3U C23A A26U C31A,0.01
8,C13G G17A G21U,0.04
9,A4U G5A U9A C18G A26U G29A G36U,0.39
10,A14U G29U C31G G33A U34C G44C,0.02
11,C3G A4G C13G G27U C42G,0.11
12,A16U C18A A25C U34G,0.01
13,G1A C3G U9G A25C,0.06
14,G5A C8U C42A,0.06
15,C10A C23U A24U A25C,0
16,G2A C31U G40U,0.03
17,G7A A14U A16U G40A U43A,0.01
18,G29C G33C C42G,0.09
19,A6U C13A G19C G30A G36A G40C,0.22
20,G1C G29A C42U,0.01
21,A6C A11U C13A G22A,0.03
22,G7C G21U U28C,0.03
23,G17C C23A C42U,0.17
24,A14C C18G C31A C42U,0.08

row,Variant,self-cleavage
1,A11G C13U U38G,0.02
2,C13G G35C U38C G44U,0.24
3,C3A A6C G30A C37G,0.65
4,A4U C8U C10A C18U G27A,0.02
5,G2C C10A C18U G30C C37U A39G,0.01
6,U9A A11U A26G G30A,0.02
7,G1C G5U A6G A26G,0.03
8,C3A A4U C23U,0.4
9,G5A C8U C13A C46A,0.65
10,U9C C10A A41G,0
11,U32A G44A C46G,0
12,G27A G36U A39C,0.04
13,A6U U9G A39U,0.22
14,A4G A14C G19U C23A U34A,0.02
15,G2U C8G C18U G21A C42G,0
16,A4G C18U U28C G35C G40C,0.04
17,C10U G29C C31U A39U,1.7
18,A11G A14C C18A C37A U43C,0
19,A11G G35C U43A,0.03
20,C3U G30A C31G A41G G44A,0.11
21,C3U U34A G36U C42G,0.15
22,A4G A11C U32G A41U C42U,0.03
23,G1C G33A C37G,0.01
24,G1A C3A A14G A41U,0.36

row,Variant,self-cleavage
1,G7C G30A C31U,0.01
2,C3U A6G G17A C18U G19U U20C U43A,0.02
3,U9A C10A C15U G44U,0.04
4,A12U G33U A41G,0.01
5,C3G U38G C46U,0.13
6,G17C U32A G40A,0.14
7,C8G A25U U32G,0.04
8,A25C G29A A39U A41C,0.12
9,G19A G30U C31A,0.35
10,G1C A26C C46A,0.09
11,A12U C15U G21A G33A,0.12
12,G1U G22A C46U,0.85
13,C10A G17A G30A,0.04
14,A6U A14C G36U A41C,0.02
15,C15A G27U G36A,0.05
16,G1A C8U C13A C31U G33C,0.92
17,G19A G29U G33C,0.12
18,G1U A4U A6G A16G G21A,0.04
19,U28A G29A G33A,0.31
20,G7C G17U G36C C42G,0.17
21,G7C G17A A26G G40A G44U,0.05
22,C10G A11C C15G,0.02
23,C18A A25U C45U,0.38
24,U9A A11C G35U G36A A39G,0

row,Variant,self-cleavage
1,A4G G5C G27U U28C G29A A39G,0.02
2,C8U G33A G36U,0.1
3,C3U A6C U32C,0.06
4,C3U A4U A16G G17U U34G A41G,0.12
5,A12U C37G U38C,0.01
6,A26C C31U A39U,0.05
7,A4C C42A G44C,0.19
8,A6U G7A G22U C31U A39C,0.11
9,G1A G21A G22A,0.41
10,U9C U20G G36U,0.07
11,G1U A26U C45G,0.1
12,C13G G21U G22A G36A U38C C45U,0.32
13,A4G G7U C15U G17A A41C C45A,0.11
14,C18U U20A U32G G33U G44C,0.01
15,A4U C31G A41G,0.05
16,C31G G33U C42U,0.09
17,A4G C10A G21A C46A,0.02
18,G21A C23U A24C A41C,0.07
19,G29U G30U C37G,0.04
20,A4C A25C U43A G44U,0.05
21,A12C G21U G27U U32G,0.01
22,C3A A24U G27A U28A,0.39
23,G2C G21A C46A,0.38
24,C3G A4U A6U C10G A14C G22A G35U C46A,0.03

row,Variant,self-cleavage
1,A12C U38C C46G,0.01
2,G29A G30A G33C G36A G44C,0.05
3,C18G G19C G29A,1.14
4,C15A C23A C45U,0.21
5,G5A A6U C31G U43C G44A,0.02
6,C10A A14G A24G C37U G40A,0.02
7,C3U C8A G27C,0.8
8,G1U C3U G7A C15U U34G,0.16
9,C8U A11U A14C C15U U32G,0
10,G5U G17A G21U,0.19
11,C3A A12G C23U G40U,0.02
12,C8A U28A G30A G44C,0.3
13,G7A A11C C18A G22C U32A G40U,0
14,A16C C37A G40U,0.06
15,C15A G30A G40U,0.04
16,A14C G21C A24U,0.06
17,G7U G17U G19C G22C G33C G35C G36A G44C,0.04
18,A4C G19A A24U G33U C46U,0.07
19,C3G C13A U34G C37U,0.03
20,G5U A14G C15U C18G G21U C23A C46A,0.02
21,G27C G40U G44U,0.47
22,A4U A24U C42G,0.08
23,A4G C18G A26G A41U G44C C46A,0.05
24,G1U G2U G27C U38C C42A,0

row,Variant,self-cleavage
1,C3G G7C G22U,0.02
2,C8U C31A A41G,0.06
3,A11G A16C U28A,0.03
4,C10G G19U G33U G35A C46A,0.01
5,A4G C10U C23A G30U,0.34
6,G1C C8U G36C,0.04
7,G1U U43A C46U,0.2
8,A24U G35C A41G C45G,0.03
9,C18A U28C U34A A41U G44C,0.01
10,G2C C13A G17A C31A C42G,0.02
11,G2A C15A U34G,0.14
12,C10U A16C C23G,0.02
13,G1U C8G G22C G35U C46A,0.02
14,C3A A12G A24U A39G,0.2
15,G2A A16C C18U G19A U28A G36U C37A,0.1
16,C8A C15U A16C,0.14
17,A12G C23G G30C,0.2
18,C13U A26U C31U,0.09
19,A16G U28A U34G C45A,0.02
20,C13A G17C A26U,0.02
21,C10G G19A C23A C37U A39C,0
22,C8G G19A A26G U28A U43A G44U,0.01
23,G1U A6G C23A,0.16
